Reference: patent publication US20250205268A1, “TREATMENT OF VIRUSES WITH ANTIVIRAL NUCLEOSIDES” (priority 2021, published 2025)

In the case of `CC(C)C(=O)OC[C@H]1O[C@@H](n2ccc(NO)nc2=O)[C@H](O)[C@@H]1O` [Compound A, {(2R,3S,4R,5R)-3,4-dihydroxy-5-[4-(hydroxyimino)-2-oxo-3,4-dihydropyrimidin-1 (2H)-yl]oxolan-2-yl}methyl 2-methylpropanoate], the “finding in 28-day toxicity study” value (17 mg/kg/day in dogs, apparent at Day 7, increasing severity from Day 14) is reported as “reversible hematology changes consistent with bone marrow toxicity” and the hematologic toxicity (preclinical, noted on Day 7, progressed to more severe pancytopenia after 14-21 days of continuous exposure, fully reversible) is reported as “mild hematologic toxicity”.
